Laboratory results published in the supplement of paper PMC3334620.
The full ranking holds about 33,000 sequences; the median of “E-score (-0.5 to 0.5)” is about -0.032, and the highest 2% start at about 0.36. This is one part of the list.

target: T1, Sko1 (UniProt Q02100); test: PBM E-score (8-mer binding enrichment) (E-score (-0.5 to 0.5)); higher = stronger / more preferred TF binding; most listed sequences are background and not binding sites; settings: protein concentration: 200 nM; construct: GST-full length
T1 sequence: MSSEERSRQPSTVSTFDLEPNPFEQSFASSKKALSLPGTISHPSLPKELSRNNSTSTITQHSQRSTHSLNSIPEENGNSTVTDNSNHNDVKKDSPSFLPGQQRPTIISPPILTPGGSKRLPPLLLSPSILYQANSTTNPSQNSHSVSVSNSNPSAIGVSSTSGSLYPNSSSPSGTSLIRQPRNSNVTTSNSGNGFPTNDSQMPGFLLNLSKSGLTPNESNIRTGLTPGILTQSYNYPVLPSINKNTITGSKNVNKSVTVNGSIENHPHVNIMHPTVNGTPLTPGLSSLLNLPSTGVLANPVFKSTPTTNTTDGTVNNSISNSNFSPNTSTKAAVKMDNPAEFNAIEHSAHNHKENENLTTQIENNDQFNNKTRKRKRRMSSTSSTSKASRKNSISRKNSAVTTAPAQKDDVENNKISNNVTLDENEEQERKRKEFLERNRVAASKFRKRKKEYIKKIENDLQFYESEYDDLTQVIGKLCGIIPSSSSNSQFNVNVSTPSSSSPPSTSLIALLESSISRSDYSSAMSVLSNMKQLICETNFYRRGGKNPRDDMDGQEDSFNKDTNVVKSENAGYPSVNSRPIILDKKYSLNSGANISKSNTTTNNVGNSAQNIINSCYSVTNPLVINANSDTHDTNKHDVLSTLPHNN
In short: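 The E-score, a modified Wilcoxon-Mann-Whitney statistic, was computed by the Universal PBM Analysis Suite for every ungapped eight-base word pooled with its reverse complement. Scans behind it were normalised with masliner after bound GST-tagged yeast transcription factors were detected with fluorescent anti-GST. The proteins, at about 100-200 nM, had been applied to universal all-10-mer Agilent arrays made double-stranded by primer extension.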

Sequence	PBM E-score
GCAGATAC	0.0583
GTTCATCA	0.18
CGATCACC	-0.165
ACGACTCT	0.0416
CTGCGAAA	0.00058
AGCTGACT	-0.112
CTGTAGTA	0.145
CATCTGGA	-0.163
CCGGCGTA	-0.071
GATTTTTA	0.0461
CCTTCGAG	-0.285
AACGTGCA	0.191
GATAGCCC	-0.23
ACGCAACT	0.355
CTTGGATC	-0.116
CGGTGGAA	-0.188
AGGGAAAG	-0.115
GAAGATAA	0.167
CAAGTCAG	-0.256
AACTTAAG	-0.018
GAACTGCC	-0.29
ATGGAGTC	-0.127
GACCGATA	-0.0548
ATCTGCGA	-0.218
CCCGATCG	0.00394

Sequence	PBM E-score
ACTGTGGA	-0.205
AGGGAGGA	-0.143
GATCCGCC	-0.163
CGCCTGAC	0.0438
GTCGAGCA	-0.217
ATTCCCTG	-0.109
GTAGCTAC	0.245
AATGGTCC	-0.021
CCGCCTAG	-0.249
AGCAGTAG	-0.327
AAGCGCAA	0.0809
AGACCAGA	-0.116
ATTGCTAA	0.301
CACATTAG	-0.0351
CGGAACTA	-0.061
GGATATCC	-0.123
AGACGACT	-0.159
GAATATCC	-0.048
CGTTAGAA	0.124
ACTTCCTA	-0.0848
AGCGCGTC	0.0596
ACACTAAA	0.0448
GCAGCACC	-0.29
CTGGGTCC	-0.377
CCATGTCC	-0.0817

Sequence	PBM E-score
GGCCGCAA	-0.283
CGAACGTA	0.361
AATGTCGT	0.371
ACGGACCC	-0.248
GCGAACCC	-0.178
AGAAAACT	0.0824
AGAGACAC	-0.0779
ACGTAAAT	0.463
AGCCCGGA	-0.394
CATATTGA	0.237
CAAACGCA	0.0771
CATTGGAG	-0.0301
CATCTAAC	0.107
CGGTGCTA	-0.103
GTAACTAA	0.175
CGGGTGCA	-0.272
CAATGGCC	-0.287
CAGTGGGC	-0.221
GACATCAC	0.382
CCCCTGCA	-0.246
AATGACTC	0.121
GACTTGCC	-0.236
AATGACAG	0.0139
ACAAGAGA	-0.165
CTAGGCAA	-0.172

Sequence	PBM E-score
ATACATTC	0.0872
CATCACGA	0.213
CTCTGTCC	-0.138
AACGTGGG	0.192
CAATGTTC	-0.0771
CCTCTCGA	-0.15
ATGCTCTG	-0.122
AGCATCCG	-0.0661
ACGGCGCC	-0.138
GGATTGTA	-0.0509
ACCTACGT	0.444
CAACCCTG	-0.0654
CTACGAAG	-0.0419
GGGACTTA	-0.216
GCGCATGA	-0.0645
CATGCACA	0.154
ATCGCACA	0.0449
ACATTAAA	0.226
CCTGTATA	-0.212
CGTACTCC	0.201
CCTATTTC	0.0978
ACCCTATC	-0.204
TCTGAGCA	-0.0291
GAGACGTA	0.394
ATTTGGAG	-0.136

Sequence	PBM E-score
CGACAGGA	-0.0281
AAGCTTAG	0.107
ACCGATCG	-0.0301
AGTCATAT	0.196
GTCAGCCA	0.0567
ACACTACC	-0.0597
TACCTCCA	-0.134
AGTGCTAA	-0.0114
GCGCGGTA	0.0303
AGGGATTG	-0.0515
CAACAAGC	0.0492
ATATAGGC	0.0084
ACCGAAAA	0.103
GGGTGCTA	-0.196
GGGGCTAA	-0.118
AACCTTAA	0.0114
AAAGTCTC	-0.209
GCAATTGC	0.275
TGATTTAA	0.166
CCACGTGA	0.339
ACAGCGAG	-0.123
GTGTCACA	0.165
CCAGGGAA	-0.128
ACGTTACC	0.297
TGGGTTAA	0.00424

Sequence	PBM E-score
CGATGGGA	-0.0417
ACACCTGG	-0.173
GAAGGTCC	-0.0613
ATGGTTCG	-0.045
GGTCAATA	-0.0209
ACGTACAG	0.415
ACGACGCG	0.148
GCAGCAGC	-0.136
GCACATCA	0.243
TAGACTAA	-0.023
AGGAGATG	-0.109
CACTGTGG	-0.226
GGGCCAAA	-0.155
CGTTGATA	0.0932
GTTCCAGA	-0.0401
ATTCAATC	0.0562
CCGGAAGA	-0.197
AGTAAGGC	-0.0198
GAGTTGGC	-0.093
CCCCAATA	0.00031
AAACCATC	0.00731
AACCGACG	0.153
AGTTCTAA	-0.00262
AGTGACTC	-0.0159
CATACGCC	0.182

Sequence	PBM E-score
ACCACGCA	0.22
CTAGTGTC	-0.191
AATTAATT	0.244
AGGACGTG	0.153
GTTCTCGA	0.117
AGGCCCCC	-0.414
GTTCGATA	0.105
TAAGTCGA	-0.0795
ATCCGGGC	-0.189
AATCCCCG	-0.246
AAAGGTCC	-0.147
AGAGAGTG	-0.246
ACCTTGGA	-0.0689
CTGGATAA	-0.0232
GCTTTTTA	-0.0182
ACTTATGA	0.142
ACGTGAGA	0.286
ACCTCCAG	-0.264
CGACAGGC	-0.157
ACGGGTAG	-0.0283
ATGTACGA	0.143
CAGGAACG	0.131
